Hit rate of the full screen: of about 410,000 compounds, about 5,000 (1.2%) were called active. The inconclusive results got no clear call from the source; some entries with a clear call stand among them for comparison. Calls follow the shape of the dose curve; as a rule, active = well fitted inhibition curve with a large enough effect; inconclusive = small, poorly fitted or top-dose-only effect; inactive = no such curve, though single readings can be large or run the other way. A potency beside an inconclusive call is a rough fit, not a confirmed value.
Experiment: qHTS for Inhibitors of TGF-b; also: nearly all actives have a fitted effect of over 65% in size
Conditions: HepG2 CAGA-GFP TGF-b/SMAD3 reporter, GFP fluorescence, 18 h, TGF-beta stimulated, 500 pg/mL final; series mostly up to 46.1 µM; activity, negative = inhibition: at the top concentration
Method in brief: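 HEPG2 CAGA-GFP reporter cells (1000/well, DMEM with 1% FBS) received compounds, then recombinant TGF-beta at 500 pg/mL final for 18 hours at 37 degrees C. Per-cell GFP summed per well was normalised to unstimulated and stimulated DMSO controls before curve fitting.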
% is scaled to controls: 0 for no effect and ±100 for the full control effect; potency is read from the fitted curve at half-maximal effect; tags tell the direction and shape of the fitted curve.

Structure (SMILES)	Potency	activity, negative = inhibition
COc1ccc(-n2c(/C=C\c3ccccc3F)nc3ccccc3c2=O)c(OC)c1	inconclusive: 14.1 µM [inhibitor, partial curve, poor fit]	
O=P1(Oc2ccccc2)CC=CC(COC(c2ccccc2)(c2ccccc2)c2ccccc2)O1 (configuration not stated)	active: 15.8 µM	
COc1ccc(C2=NOC(COC(=O)c3ccc4ccccc4n3)C2)cc1 (configuration not stated)	inconclusive: 11.2 µM [inhibitor, partial curve, poor fit]	
COC(=O)C1=C(c2ccc(F)cc2OCc2ccccc2)C[C@@H]2CC[C@H]1N2C(=O)NC1CCN(Cc2ccccc2)CC1	inconclusive: 35.5 µM [inhibitor, single point]	
CC(C)Nc1ccc(Nc2ccccc2)cc1	inconclusive: 31.6 µM [inhibitor, single point]	
Cc1cc(OC(C)C(=O)NCc2ccncc2)c2c3c(c(=O)oc2c1)CCCC3 (configuration not stated)		inactive: 4.44%
CCN(CC)c1ccc(CNCCc2ccc(F)cc2)cc1	inconclusive: 22.4 µM [inhibitor, single point]	
Cc1cccc(CN2CCN(Cc3ccc(Cl)cc3)CC2)c1	inconclusive: 17.8 µM [inhibitor, single point]	
N#CCCn1cc(C(=O)Nc2ccccc2Cl)c(-c2ccc(F)cc2)n1	inconclusive: 3.16 µM [inhibitor, single point]	
CCN[C@@H](C)Cc1cccc(C(F)(F)F)c1		inactive: 20.5%
CC(=NCc1ccc2c(c1)OCO2)c1c(O)n(Cc2ccccc2)c(=O)[nH]c1=O	inconclusive: 3.16 µM [inhibitor, single point]	
Cc1ccc(S(=O)(=O)N2CCCC(C(=O)N3CCC4(CC3)OCCO4)C2)cc1 (configuration not stated)	inconclusive: 6.31 µM [inhibitor, full curve]	
O=[N+]([O-])c1ccc(N2CCNCC2)c(Cl)c1		inactive: -8.5%
C[C@@H]1CN([C@@H](C)CO)C(=O)c2c(c3ccccc3n2C)-c2ccccc2CO[C@H]1CN(C)S(=O)(=O)c1ccc(C#N)cc1	inconclusive: 35.5 µM [inhibitor, single point]	
O=c1c2ccccc2nc(/C=C/c2ccco2)n1-c1ccccc1O	inconclusive: 17.8 µM [inhibitor, partial curve, poor fit]	
COC(=O)C1=C(c2ccc3ccccc3c2)C[C@@H]2CC[C@H]1N2C(=O)NC1CC1	inconclusive: 2 µM [inhibitor, partial curve, poor fit]	
COc1ccc(NS(=O)(=O)c2ccc3c(c2)oc(=O)n3C)cc1Cl	inconclusive: 35.5 µM [inhibitor, single point]	
CC12CCC3C(CCC4CC(=O)CCC43C)C1CC(=NO)C2=O (configuration not stated)	inconclusive: 0.112 µM [inhibitor, full curve, poor fit]	
CC12CCC(=O)CC1CCC1C2C(=O)CC2(C)C1CCC2(C)O (configuration not stated)		inactive: 27.1%
Cc1c(C(=O)NCc2ccc(Cl)c(Cl)c2)sc(=O)n1Cc1ccc(S(=O)(=O)N(C)C)cc1	inconclusive: 12.6 µM [inhibitor, single point]	
Cc1ccc(N2CC(C(=O)Nc3nnc(SCC(=O)Nc4cc(C)on4)s3)CC2=O)cc1 (configuration not stated)	inconclusive: 3.16 µM [inhibitor, partial curve]	

Structure (SMILES)	Potency	activity, negative = inhibition
COc1ccccc1S(=O)(=O)N(C)C[C@@H]1Oc2cc(C#CCC(C)C)ccc2S(=O)(=O)N([C@H](C)CO)C[C@@H]1C	inconclusive: 22.4 µM [inhibitor, single point]	
CC(=NCc1ccco1)c1c(O)n(C)c(=O)n(C)c1=O		inactive: -5.61%
CC(=O)OC1CC(OC2C(O)CC(OC3C(O)CC(OC4CCC5(C)C(CCC6C5CCC5(C)C(C7=CC(=O)OC7)CCC65O)C4)OC3C)OC2C)OC(C)C1OC1OC(CO)C(O)C(O)C1O (configuration not stated)	inconclusive: 0.501 µM [inhibitor, full curve, poor fit]	
COC(=O)C1=C(c2ccc(S(C)(=O)=O)cc2)C[C@@H]2CC[C@H]1N2C(=O)N1CCCC1		inactive: 12%
O=c1[nH]c(=O)n(Cc2ccco2)c(O)c1C=NCCCn1ccnc1		inactive: 7.09%
CCOC(=O)c1cc(-c2ccccc2)n(CCCC(=O)Nc2ccc(C)c(C)c2)c1C	inconclusive: 3.16 µM [inhibitor, full curve, poor fit]	
COC(=O)C1=C(c2ccc(S(C)(=O)=O)cc2)C[C@@H]2CC[C@H]1N2C(=O)NCCNC(C)=O	inconclusive: 3.98 µM [inhibitor, single point]	
c1ccc(C(OCCN2CCNCC2)c2ccccc2)cc1		inactive: -2.82%
Cc1ccc(-n2c(O)c(/C=C3/C(c4ccccc4)=Nc4ccccc43)c(=O)[nH]c2=O)cc1	inconclusive: 15.8 µM [inhibitor, single point]	
CS(=O)(=O)c1ccc(C2=C(CNC(=O)c3ccncc3)[C@H]3CC[C@@H](C2)N3CCOc2ccccc2)cc1		inactive: 3.89%
O=c1[nH]c(=S)[nH]c(O)c1N=Nc1ccc2c(c1)OCCO2		inactive: -2.52%
Cc1cccc(N/N=C/c2c(O)[nH]c(=S)[nH]c2=O)c1	inconclusive: 0.708 µM [inhibitor, partial curve, poor fit]	
C=C1C(=O)[C@@]23C[C@H]4[C@@H]5[C@@]6(C)CCC[C@@]57[C@@H]2[C@@H](O)[C@@H]1C[C@H]3[C@H]7N4C6	active: 12.6 µM	
COC(=O)C1=C(c2ccc(OC)c(OC)c2)C[C@@H]2CC[C@H]1N2C(=O)NCCO	inconclusive: 3.16 µM [inhibitor, partial curve, poor fit]	
CCc1cccc(NC(=O)CN2C(=O)CN=C(c3ccccc3F)c3cc(Cl)ccc32)c1	active: 12.6 µM	
COc1ccc(OC)c(-n2c(O)c(C=Nc3c(C)n(C)n(-c4ccccc4)c3=O)c(=O)[nH]c2=S)c1	inconclusive: 3.16 µM [inhibitor, single point]	
CCS(=O)(=O)Nc1cccc(C(=C2CCCCC2)c2cnc[nH]2)c1		inactive: -9.57%
COC(=O)C1=C(c2ccc(OCc3ccccc3)cc2)C[C@@H]2CC[C@H]1N2C(=O)NCc1ccc(OC)c(OC)c1		inactive: -13.7%
Cc1cc(-c2ccccc2)cc(C)[n+]1Cc1ccccc1	inconclusive: 6.31 µM [inhibitor, single point]	
Cc1cc(C)cc(N2C(=O)NC(=O)/C(=C\c3cccn3-c3ccc(Cl)cc3)C2=O)c1	inconclusive: 7.94 µM [inhibitor, single point]	
CC1CCOC(=O)C=CC=CC(=O)OC2CC3OC4C5OC5(C)C(O)CC4(COC(=O)C1O)C2(C)C31CO1 (configuration not stated)	active: 0.282 µM	

Structure (SMILES)	Potency	activity, negative = inhibition
CC(C)CCNC(=O)c1c(N)n(CC2CCCO2)c2nc3ccccc3nc12 (configuration not stated)	inconclusive: 35.5 µM [inhibitor, partial curve, poor fit]	
CN(C)C1(CNC(=O)Nc2ccc(Cl)c(Cl)c2)CCCCC1	inconclusive: 31.6 µM [inhibitor, single point]	
COc1ccc(Cn2c(N)c(C(=O)NCc3ccco3)c3nc4ccccc4nc32)cc1	inconclusive: 7.08 µM [inhibitor, full curve, poor fit]	
CC(C)(C)n1nnnc1C(C1CC1)N1CCC2(CC1)C(=O)NCN2c1ccccc1 (configuration not stated)	inconclusive: 6.31 µM [inhibitor, partial curve]	
OCC1OC(n2cnc3cc(Cl)c(Cl)cc32)C(O)C1O (configuration not stated)	inconclusive: 35.5 µM [inhibitor, single point]	
Cc1cccc(N(CC(=O)NCCSc2ccc(Cl)cc2)S(=O)(=O)c2ccccc2)c1C	inconclusive: 25.1 µM [inhibitor, single point]	
O=P(O)(O)Cc1c(Cl)cccc1Cl		inactive: 16.3%
Oc1cccc(Nc2ncnc3sc4c(c23)CCCC4)c1	inconclusive: 8.91 µM [inhibitor, partial curve]	
O=c1[nH]c2ccccc2n1C1CCN(C(c2ccccc2)c2nnnn2-c2ccc3c(c2)OCCO3)CC1 (configuration not stated)	inconclusive: 22.4 µM [inhibitor, single point]	
COC(=O)c1ccc(S(=O)(=O)N2CCCN(Cc3ccccc3)CC2)n1C	inconclusive: 22.4 µM [inhibitor, single point]	
COc1cc(C)c(-c2nc(CN3C[C@@H]4C[C@@H](C3)c3cccc(=O)n3C4)c(C)o2)cc1C	inconclusive: 4.47 µM [inhibitor, partial curve, poor fit]	
Cc1nccn1-c1c([N+](=O)[O-])c(=O)n(C)c2ccccc12	inconclusive: 35.5 µM [inhibitor, single point]	
Cc1ccc([C@H]2C[C@@H](O)[C@H](n3cc(COC(=O)c4ccccc4)nn3)CN2C(=O)C2CCCCC2)cc1		inactive: 4.1%
CC(C)NC(=O)Cn1cc(C(=O)c2ccccc2)c2ccccc21		inactive: -6.24%
COc1cc(C2c3cc4c(cc3CC3COC(=O)C32)OCO4)cc(OC)c1O (configuration not stated)	inconclusive: 1.41 µM [inhibitor, full curve, poor fit]	
COc1ccc(C(O)P(=O)(OC2CCCCC2)c2ccc(N(C)C)cc2)cc1OC (configuration not stated)	inconclusive: 0.112 µM [inhibitor, full curve, poor fit]	
O=C1C=CC(=O)C2C1C1(Cl)C(Cl)=C(Cl)C2(Cl)C1(Cl)Cl (configuration not stated)	inconclusive: 35.5 µM [inhibitor, single point]	
O=C(CCNS(=O)(=O)c1ccccc1)Nc1ccc(Cl)cc1C(=O)c1ccccc1	inconclusive: 5.62 µM [inhibitor, single point]	
CC(CCN1CC1)=NNC(=O)Nc1cccc2ccccc12	inconclusive: 6.31 µM [inhibitor, single point]	
COC(=O)C1=C(c2cc3ccccc3o2)C[C@@H]2CC[C@H]1N2C(=O)N1CCCC1	inconclusive: 0.447 µM [inhibitor, full curve, poor fit]	
